Measured values taken from the BET-seq Pho4 binding data (Le et al. 2018).
Some of the results follow. These are noisy estimates, calculated here from bound and input reads.

Biological target: T1, Pho4 (S. cerevisiae) (UniProt P07270)
T1 sequence: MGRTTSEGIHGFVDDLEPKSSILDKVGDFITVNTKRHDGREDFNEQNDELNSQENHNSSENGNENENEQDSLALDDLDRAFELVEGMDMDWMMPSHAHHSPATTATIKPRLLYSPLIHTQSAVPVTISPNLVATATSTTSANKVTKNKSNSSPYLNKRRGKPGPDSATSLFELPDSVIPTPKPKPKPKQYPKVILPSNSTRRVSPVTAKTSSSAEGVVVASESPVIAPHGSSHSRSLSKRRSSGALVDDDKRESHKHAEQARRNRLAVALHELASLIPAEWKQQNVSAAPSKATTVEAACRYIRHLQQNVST
Assay: relative binding free energy (BET-seq); higher = weaker binding
Settings: reference: library average

Row | Sequence | relative binding free energy [kJ/mol]
1 | CGGTTCACGTGGAGAA | 1.3
2 | ACGTGCACGTGGGGTC | -0.544
3 | ACGGTCACGTGGAGTT | 0.46
4 | TAGGGCACGTGAATGT | 0.418
5 | TAGGGCACGTGCGTTA | -0.795
6 | TATGTCACGTGTTGCA | 0.209
7 | AGAAACACGTGGGTGG | -0.293
8 | TGTATCACGTGGTCTT | 0.167
9 | GTAGTCACGTGATTTG | 0.962
10 | TAGGTCACGTGGGCAG | -0.0418
11 | ATGTTCACGTGCCGGG | 1
12 | TGAAACACGTGAGGGA | 0.711
13 | TAAGACACGTGTAAGT | 0.544
14 | TAAATCACGTGATGGG | 1.05
15 | GGGATCACGTGGTCAG | 0.377
16 | CAGTTCACGTGGCATG | 1.46
17 | GTGGGCACGTGAAATT | 1.17
18 | CACGTCACGTGGGGTT | -0.293
19 | TGTAGCACGTGATTTC | 0.753
20 | TCTGGCACGTGGTGCT | -0.837
21 | CGGTTCACGTGTAGAA | 1.13
22 | ATGCGCACGTGTGCGG | -0.879
23 | GTTATCACGTGCAGTA | 0.92

Row | Sequence | relative binding free energy [kJ/mol]
24 | GTGCGCACGTGTGACG | 0.167
25 | CTGTTCACGTGTGAGA | 0.795
26 | TCGGCCACGTGATGGG | 0.711
27 | TGTACCACGTGGGTGA | -1.17
28 | TTTGTCACGTGTTACA | 0.669
29 | GGGTTCACGTGTTGCC | 1.97
30 | TCGCGCACGTGGGCGG | -1.38
31 | AGCAACACGTGTGTTG | -0.293
32 | TGATGCACGTGGTTAT | -0.711
33 | GTATGCACGTGGTTCT | -0.126
34 | TGAGTCACGTGCTAGT | 0.586
35 | CTTGTCACGTGGCGTA | 0.251
36 | TATTTCACGTGGGCAT | 0.795
37 | ATGAGCACGTGCTGTG | -0.92
38 | ATCATCACGTGCTTGT | 1.26
39 | AGGTACACGTGGAATG | 0.837
40 | TCATTCACGTGGGGTG | 0.753
41 | GAAAGCACGTGTTTGG | -0.46
42 | AAGTACACGTGTGTTG | 0.335
43 | TGTATCACGTGGAGGG | 0.209
44 | TGAGTCACGTGTGGCA | 0.418
45 | TTAATCACGTGGAAAT | 1.55
46 | CATGACACGTGGTTAG | -0.293

Row | Sequence | relative binding free energy [kJ/mol]
47 | TGTTGCACGTGGTCCG | -0.293
48 | ATCATCACGTGGGGTA | -0.0418
49 | TTTTTCACGTGACAGA | 1.8
50 | TTGTTCACGTGGTATT | 1.09
51 | TAGTCCACGTGGTTCG | 0.502
52 | GGAGTCACGTGGGGAC | -0.0418
53 | GTAGACACGTGGTCGT | -0.502
54 | TGGGGCACGTGAAGTC | 0.795
55 | GCGCTCACGTGGAGGG | 0.92
56 | TGCGTCACGTGAATAG | 1.3
57 | GGTTCCACGTGTAGTT | 1.13
58 | CCGTTCACGTGTTTGG | 1
59 | GTGAACACGTGGTTTG | 0.209
60 | CTGATCACGTGGCGGG | -0.0418
61 | CGGTGCACGTGAGAGG | 0.377
62 | GAAAACACGTGGGTGT | -0.167
63 | TATATCACGTGGCGGA | 0
64 | CGTTACACGTGATGGG | 0.92
65 | ATTAGCACGTGTTGAA | -0.0418
66 | TGCTTCACGTGAGGTT | 1.34
67 | TTCTTCACGTGTAGAA | 1.46
68 | TTACTCACGTGCTGTG | 0.711
69 | GTGGGCACGTGGAAGA | 0.209

Row | Sequence | relative binding free energy [kJ/mol]
70 | GGTGTCACGTGATCGG | 1.09
71 | ATTGTCACGTGTCCGT | 0.126
72 | TGATTCACGTGGTCGG | 0.377
73 | CTTAACACGTGGTTTG | 0.0837
74 | TTTTGCACGTGTACAT | 0.0418
75 | GTTGGCACGTGTTCTA | 0.126
76 | TAGTTCACGTGTACAG | 0.962
77 | TAGGTCACGTGTTCGT | 0.293
78 | TGAATCACGTGTAGGA | 1.38
79 | ATTGGCACGTGAGGTC | -0.0418
80 | TGTAGCACGTGTTGTC | -0.0837
81 | AGTGTCACGTGTTATG | 0.711
82 | ATAAGCACGTGCGGGT | -0.795
83 | TGGATCACGTGTTGCA | 0.335
84 | GTTTTCACGTGGCTTA | 1.05
85 | TGTTGCACGTGAAGGG | 0.669
86 | GGAGGCACGTGCGGGT | -0.377
87 | GGCGGCACGTGTGGAT | 0.0837
88 | TACGGCACGTGTGGGA | -0.46
89 | GGTGACACGTGTTCTT | 0.92
90 | GTTGGCACGTGACGCT | 0.502
91 | AGAGTCACGTGAATTG | 1.09
92 | ATTGGCACGTGGTGAC | -1.05

Row | Sequence | relative binding free energy [kJ/mol]
93 | GATGTCACGTGTCTGT | 0.46
94 | GGGTTCACGTGTGGCA | 1.26
95 | GGCGTCACGTGAGAGA | 2.05
96 | CTGAACACGTGAGGGT | 0.795
97 | TTAGACACGTGGTTTG | -0.377
98 | GAGGGCACGTGGGGTA | -1.13
99 | GTAGTCACGTGGGCAA | 0.0837
100 | TGGTGCACGTGGAAAA | 0.251
101 | TGGATCACGTGTAAAG | 1.17
102 | AATAGCACGTGAAGTT | 0.711
103 | GGGGGCACGTGGAGGC | -0.126
104 | GTGGACACGTGTGAAG | 0.753
105 | CTATGCACGTGTGTTA | -1.05
106 | GTGGTCACGTGCATGT | 0.837
107 | GCGGGCACGTGAGGTC | 1
108 | CTAAGCACGTGTTGTA | -0.628
109 | CATGTCACGTGGTAAG | -0.126
110 | GTGAGCACGTGGCTTG | -0.251
111 | CTGGTCACGTGTGATA | 0.293
112 | TCGGGCACGTGAGGGA | 0.544
113 | TTTTCCACGTGATAGT | 0.209
114 | GGTTTCACGTGGTTGG | 1.42
115 | AAATTCACGTGTGTAT | 0.628
